Reference: PubChem BioAssay AID624417 (National Center for Advancing Translational Sciences (NCATS), 2012)
About 6,400 (1.6%) of roughly 410,000 compounds were called active. The inconclusive results got no clear call from the source; some entries with a clear call stand among them for comparison. The call rests on the fitted dose curve; in most records, active means well fitted inhibition curve with a large enough effect; inconclusive means small, poorly fitted or top-dose-only effect; inactive means no such curve, though single readings can be large or run the other way. Potencies of inconclusive entries are left out as doubtful fits.

biological target: Glucagon-like peptide 1 receptor (Homo sapiens) (UniProt P43220); test: qHTS of GLP-1 Receptor Inverse Agonists (Inhibition Mode); conditions: HEK293 GLP-1R CRE-luciferase, luminescence, 24 h, GLP-1R form is constitutively active; series mostly up to 38.3 µM; further: nearly all actives have a fitted effect of over 55% in size
Sequence of UniProt P43220 (P43220 whole entry, looked up): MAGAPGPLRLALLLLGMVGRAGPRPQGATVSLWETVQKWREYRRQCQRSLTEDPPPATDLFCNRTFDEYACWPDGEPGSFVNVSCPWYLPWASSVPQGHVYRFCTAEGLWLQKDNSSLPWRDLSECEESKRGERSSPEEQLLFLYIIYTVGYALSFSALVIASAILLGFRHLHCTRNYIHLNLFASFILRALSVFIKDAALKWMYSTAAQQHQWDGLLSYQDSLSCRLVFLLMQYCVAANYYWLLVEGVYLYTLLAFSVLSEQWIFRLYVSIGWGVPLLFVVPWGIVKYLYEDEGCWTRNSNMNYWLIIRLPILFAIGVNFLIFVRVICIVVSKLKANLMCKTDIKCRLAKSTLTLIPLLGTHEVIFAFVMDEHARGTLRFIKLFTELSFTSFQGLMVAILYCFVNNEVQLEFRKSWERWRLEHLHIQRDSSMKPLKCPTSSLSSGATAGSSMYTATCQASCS
Outline: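 Inverse agonists were sought by their lowering of basal cAMP reporter luciferase output in HEK293 cells stably carrying constitutively active human GLP-1R, after 24 h compound treatment.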
Potency means the concentration at half of the fitted maximal effect; tags describe the fitted curve by direction and shape.

Row | SMILES | Potency
1 | CCOc1ccc(-c2[nH]ncc2Oc2cccc(OC)c2)c(O)c1 | inconclusive [inhibitor, partial curve, poor fit]
2 | COc1ccc(C2=NS(=O)(=O)N(C)C(C(=O)NCc3ccc4c(c3)OCO4)=C2)cc1 | inconclusive [inhibitor, single point]
3 | CC(CC(=O)Nc1ccc(Br)cc1F)S(=O)(=O)c1ccc2c(c1)NC(=O)CO2 (stereo not given) | inconclusive [inhibitor, single point]
4 | COC(=O)C1=C(C)N(c2ccccc2)C(=S)NC1c1ccccc1C(F)(F)F (stereo not given) | inconclusive [inhibitor, partial curve, poor fit]
5 | CCOC(=O)CSC1=C(C#N)C(c2ccccc2OC)CC(=O)N1 (stereo not given) | inconclusive [inhibitor, partial curve, poor fit]
6 | CC(C)N1CCc2c(sc(NC(=O)c3cc(-c4cccs4)nc4ccccc34)c2C(N)=O)C1 | inconclusive [inhibitor, single point]
7 | CNC(=O)NC(=O)C(OC(=O)Cc1cccc(C(F)(F)F)c1)c1ccccc1 (stereo not given) | inconclusive [inhibitor, single point]
8 | CCOC(=O)c1sc(C)c2c1NC(C)(c1cccc3ccccc13)NC2=O (stereo not given) | inconclusive [inhibitor, partial curve, poor fit]
9 | Cc1cccc(NC2=NC(=S)N(CC#N)C23CCCCC3)c1 | inconclusive [inhibitor, full curve]
10 | COc1cc(C2c3cc4c(cc3C(OC3OC5COC(c6cccs6)OC5C(O)C3O)C3COC(=O)C23)OCO4)cc(OC)c1O (stereo not given) | inconclusive [inhibitor, full curve, poor fit]
11 | CCC(NC(=S)NCc1ccc(F)cc1)c1ccccc1 (stereo not given) | inconclusive [inhibitor, partial curve, poor fit]
12 | CSCCC(NS(=O)(=O)c1ccc(C)cc1)C(=O)N(C)CC(=O)Nc1ccccc1Br (stereo not given) | inconclusive [inhibitor, single point]
13 | O=C(CSc1ccc(-c2ccc(F)cc2)nn1)N1CCOCC1 | inactive
14 | Cc1cc(OCC(=O)NC2CCN(C)CC2)ccc1[N+](=O)[O-] | inconclusive [inhibitor, partial curve, poor fit]
15 | COC(=O)c1c(NS(=O)(=O)c2ccc(C)cc2)sc2c1CCC(C)C2 (stereo not given) | inconclusive [inhibitor, single point]
16 | Cc1ccc(N(CC(=O)Nc2cc(C)cc(C)c2)S(=O)(=O)c2cccc3nonc23)cc1 | inconclusive [inhibitor, single point]
17 | O=C(NC(=O)c1ccc(C(F)(F)F)cc1)Nc1ccc(-c2cnco2)cc1 | inactive
18 | C/C(=N\O)C(=O)NCc1ccccn1 | inactive
19 | Cc1ccc(C)c(NC(=O)c2cnn3ccccc23)c1 | inactive
20 | O=C1Nc2ccc([N+](=O)[O-])cc2OC1CCN1CCN(Cc2ccccc2)CC1 (stereo not given) | inconclusive [inhibitor, single point]
21 | O=C(NCCCN1CCN(c2ccc(F)cc2)CC1)Nc1ccc([N+](=O)[O-])cc1 | active: 11.2 µM
22 | Cc1ccc(C)c(S(=O)(=O)NCc2ccc(C(=O)N3CCC(Cc4ccccc4)CC3)cc2)c1 | active: 10 µM

Row | SMILES | Potency
23 | CCOc1ccc2nc(SCC(=O)NC3CCCCC3)[nH]c2c1 | inconclusive [inhibitor, single point]
24 | CCN(CC)S(=O)(=O)c1ccc(C(=O)NC(=S)N2CCCCC2C)cc1 (stereo not given) | inactive
25 | CC(c1cccs1)N(Cc1ccco1)C(=O)Nc1ccc(Cl)c(Cl)c1 (stereo not given) | inconclusive [inhibitor, partial curve, poor fit]
26 | COc1ccccc1OCCOCCOc1ccccc1Cl | inconclusive [inhibitor, single point]
27 | COc1ccc(NC(=O)CSCc2cnn(-c3ccccc3)c2-n2cccc2)cc1 | inconclusive [inhibitor, single point]
28 | COc1ccc(C(NC(=O)C2CCN(CCCOc3ccccc3)CC2)c2cccs2)cc1 (stereo not given) | inconclusive [inhibitor, partial curve, poor fit]
29 | CCn1ccc2cc(S(=O)(=O)N3CCC(C(=O)NCCc4ccc(C)cc4)CC3)ccc21 | inconclusive [inhibitor, single point]
30 | Cc1ccc(NC(=S)NC(NC(=O)Cc2cccc3ccccc23)C(Cl)(Cl)Cl)cc1 (stereo not given) | inconclusive [inhibitor, partial curve]
31 | CSc1ccc(CN2CCN(C3CCCC3)C(CCO)C2)cc1 (stereo not given) | inconclusive [inhibitor, partial curve, poor fit]
32 | Cc1ccc(N(C(=O)c2snc(C(N)=O)c2N)C(C(=O)NCCC(C)C)c2ccco2)cc1 (stereo not given) | inconclusive [inhibitor, single point]
33 | CCc1nc(Nc2ccccc2)c2oc3ccccc3c2n1 | inconclusive [inhibitor, single point]
34 | CC(=O)Oc1ccc2oc(=O)c3c(c2c1)CCCN3C(=O)CN1CCOCC1 | inactive
35 | CCOC(=O)Cc1ccc(NS(=O)(=O)c2ccc(SC)cc2)cc1 | inconclusive [inhibitor, partial curve, poor fit]
36 | O=[N+]([O-])c1cc2cccnc2c2ncccc12 | inconclusive [inhibitor, partial curve, poor fit]
37 | CS(=O)(=O)n1nc(OC(=O)c2cccc3ccccc23)cc1N | inactive
38 | CC(C)C[C@@H](CN1CCC[C@@H]1CN1C(=O)C(=O)NC[C@@H]1Cc1ccccc1)N1C[C@H](Cc2ccc(O)cc2)N(CC2CCCCCC2)C(=O)C1=O | inconclusive [inhibitor, single point]
39 | Cc1nn(-c2ccccc2)c2[nH]c(=O)c(CNCc3ccc4c(c3)OCO4)cc12 | inactive
40 | O=c1[nH][nH]cc1C=Nc1ccccc1O | inconclusive [inhibitor, single point]
41 | O=C(Nc1cc(Cl)ccc1O)C1CC(c2ccccc2Cl)=NO1 (stereo not given) | inconclusive [inhibitor, single point]
42 | Cc1ccc(N2C(=O)c3[nH]nc(-c4ccc(Cl)cc4)c3C2c2ccc(F)cc2)cc1 (stereo not given) | inconclusive [inhibitor, single point]
43 | CN1CCC(N(C)S(=O)(=O)c2ccc(C(C)(C)C)cc2)CC1 | inconclusive [inhibitor, single point]
44 | CCC1(c2ccccc2)NC(=O)N(CC(=O)Nc2ccc(Cl)c(S(=O)(=O)N3CCCCC3)c2)C1=O (stereo not given) | inconclusive [inhibitor, single point]

Row | SMILES | Potency
45 | CCc1ccccc1NC(=O)C1C(c2ccccc2)C1(Cl)Cl (stereo not given) | inconclusive [inhibitor, partial curve, poor fit]
46 | CC1CCCC(NC(=O)COC(=O)c2ccc([N+](=O)[O-])o2)C1C (stereo not given) | inactive
47 | COc1ccc(CNC(=O)c2cccc(-n3cnc4cccnc43)c2C)cc1 | inactive
48 | CCOc1ccc(NC(=O)Cn2ccn(-c3ccc(F)c(F)c3)c(=O)c2=O)cc1 | inactive
49 | CCOC(=O)C(C(=O)Nc1nc2ccccc2s1)C1CCCCC1 (stereo not given) | inconclusive [inhibitor, partial curve, poor fit]
50 | CCc1ccc(C(O)c2ncc(-c3ccccc3C(F)(F)F)[nH]2)cc1 (stereo not given) | inconclusive [inhibitor, single point]
51 | O=C(CN1CCN(Cc2ccccc2)CC1)N/N=C/c1c[nH]c2ccccc12 | inconclusive [inhibitor, partial curve, poor fit]
52 | C#CCn1c(S(=O)(=O)Cc2ccc(F)cc2)nc(-c2ccccc2)c1-c1ccccc1 | active: 5.62 µM
53 | COc1ccc(NC(=O)CCC(=O)c2cccs2)cc1S(=O)(=O)Nc1ccc(Cl)cc1 | inconclusive [inhibitor, single point]
54 | O=C(CN1C(=O)COc2ccccc21)NCCCN1CCN(c2ccccc2F)CC1 | inactive
55 | c1ccc(Cn2c(NCc3ccco3)nc3ccccc32)cc1 | inconclusive [inhibitor, single point]
56 | COc1ccc(-c2cc(C(F)(F)F)nc(SCC(=O)NCc3cnn(C)c3C)n2)cc1OC | inactive
57 | O=C(O)COc1ccccc1/C=N/NC(=O)CSc1nnc(SCc2ccc(Cl)cc2)s1 | inconclusive [inhibitor, partial curve, poor fit]
58 | CCOc1ccccc1OCCOc1ccccc1CC | inconclusive [inhibitor, single point]
59 | Cc1ccnc(NC(=O)c2cccc(NC(=O)Cc3ccccc3)c2)c1 | inconclusive [inhibitor, single point]
60 | Cc1nc2ccccc2c(=O)n1NC(=O)c1ccccc1 | inactive
61 | CCOc1ccc(/C=C\C(C)=N\O)cc1 | inactive
62 | O=C(c1cc2ccccc2o1)N1CCN(Cc2ccc3c(c2)OCO3)CC1 | inconclusive [inhibitor, partial curve, poor fit]
63 | CC1=CC(C)(C)N2C(=O)C3(C(C#N)=C(N)OC4=C3C(=O)CCC4)c3c(C)c(C)cc1c32 (stereo not given) | inconclusive [inhibitor, single point]
64 | CCC(CC)c1nnc(NC(=O)CCc2ccccc2OC)s1 | inactive
65 | CCOC(=O)c1sc(=S)n(-c2ccc(OC)cc2)c1N | inconclusive [inhibitor, partial curve, poor fit]
